SMILES strings stand for the structures. The list shows a part of the results.

Assay [1] deals with HSkMC (human skeletal muscle cells). The assay is described as follows: cytotoxicity call (relative viability < 0.9). As to conditions: 10 µM.
Assay [2] has as its system HepG2. The assay is described as follows: cytotoxicity call (relative viability < 0.9). As to conditions: 10 µM.
In assay [3] the test system is S. aureus RN4220. As to the kind of experiment: growth inhibition call (relative growth <= 0.2). As to conditions: 50 µM.

As to `[N-]=[N+]=Nc1ccccc1C[C@@]1(C(=O)NCCN2CCOCC2)N=C(c2ccc(OCCCO)cc2)O[C@@H]1c1ccccc1N=[N+]=[N-]`, the cytotoxicity call in assay [1] and in assay [2] was “inactive” throughout. Also, the growth inhibition call in assay [3] is “inactive”.
Consider `CCC(CC)C(=O)N[C@@H]1[C@@H]2CNC[C@@H]21`, for which the cytotoxicity call in assay [1] and in assay [2] was “inactive” in each case. Besides, in assay [3], the growth inhibition call is “inactive”.
Regarding `CN[C@@H]1[C@@H]2[C@H]3CCN2C[C@H]1O3`, the cytotoxicity call in assay [1] and in assay [2] was “inactive” in each case. Further, in assay [3], the growth inhibition call was “inactive”.
As for `N[C@@H](C(=O)O)c1cc(=O)[nH]o1`, the cytotoxicity call in assay [1] and in assay [2] was “inactive” in each case. Further, the growth inhibition call in assay [3] was “inactive”.
For `O=[N+]([O-])c1cc([As](=O)(O)O)ccc1O`, the cytotoxicity call in assay [1] and in assay [2] was “inactive” in each case. Also, the growth inhibition call in assay [3] was “inactive”.
`NC(=O)c1cc([N+](=O)[O-])cc([N+](=O)[O-])c1`: the cytotoxicity call in assay [1] and in assay [2] was “inactive” throughout. In addition, the growth inhibition call in assay [3] is “inactive”.
Consider `CN1CCOCC12CCN(c1ncccn1)CC2`, for which the cytotoxicity call in assay [1] and in assay [2] was “inactive” throughout. In addition, in assay [3], the growth inhibition call was “inactive”.
For `CN1CCC2(C)c3cc(O)ccc3N(C)C12.O=C(O)C=CC(=O)O` (configuration not stated), in assay [1], the cytotoxicity call was “inactive”. The cytotoxicity call in assay [2] was “active”. The growth inhibition call in assay [3] was “inactive”.
Take `O=C1CC2OCC=C3CN4CCC56c7ccccc7N1C5C2C3CC46.O=S(=O)(O)O` (configuration not stated): the cytotoxicity call in assay [1] was “inactive”. In addition, in assay [2], the cytotoxicity call was “active”. In assay [3], the growth inhibition call was “inactive”.
Consider `OCCN[C@@H]1c2ccccc2[C@H]2CNC[C@H]21`, for which the cytotoxicity call in assay [1] and in assay [2] was “inactive” in each case. Further, the growth inhibition call in assay [3] is “inactive”.
In the case of `Cl.NCC(CC(=O)O)c1ccc(Cl)cc1` (racemic), the cytotoxicity call in assay [1] and in assay [2] was “inactive” each time. In addition, the growth inhibition call in assay [3] is “inactive”.
Consider `N#Cc1cccnc1`, for which the cytotoxicity call in assay [1] and in assay [2] was “inactive” throughout. Further, in assay [3], the growth inhibition call is “inactive”.
Regarding `CNC(=O)Oc1ccc2c(c1)C1(C)CCN(C)C1N2C` (configuration not stated), the cytotoxicity call in assay [1] was “inactive”. Further, in assay [2], the cytotoxicity call was “active”. Further, the growth inhibition call in assay [3] was “inactive”.
As to `NC(=N[N+](=O)[O-])NCCC[C@H](N)C(=O)O`, the cytotoxicity call in assay [1] and in assay [2] was “inactive” throughout. The growth inhibition call in assay [3] is “inactive”.
For the molecule `C[C@H](CO)N1C[C@H](C)[C@@H](CN(C)C(=O)Oc2ccccc2)OCc2ccccc2-c2c(n(C)c3ccccc23)C1=O`, the cytotoxicity call in assay [1] and in assay [2] was “inactive” throughout. For the same molecule, in assay [3], the growth inhibition call was “inactive”.
`COc1ccc(C2(CN)CCOCC2)cc1`: the cytotoxicity call in assay [1] and in assay [2] was “inactive” throughout. The growth inhibition call in assay [3] was “inactive”.
Turning to `CN[C@@H]1[C@@H](O)[C@@H](O[C@@H]2[C@@H](O)[C@H](O[C@H]3O[C@H](CN)CC[C@H]3N)[C@@H](N)C[C@H]2N)OC[C@]1(C)O.CN[C@@H]1[C@@H](O)[C@@H](O[C@@H]2[C@@H](O)[C@H](O[C@H]3O[C@H]([C@@H](C)N)CC[C@H]3N)[C@@H](N)C[C@H]2N)OC[C@]1(C)O.CN[C@@H]1[C@@H](O)[C@@H](O[C@@H]2[C@@H](O)[C@H](O[C@H]3O[C@H]([C@@H](C)NC)CC[C@H]3N)[C@@H](N)C[C@H]2N)OC[C@]1(C)O`, the cytotoxicity call in assay [1] and in assay [2] was “inactive” in each case. The growth inhibition call in assay [3] is “inactive”.
Consider `C[C@]12CC[C@](C)(O1)[C@H](C(=O)O)[C@@H]2C(=O)O`, for which the cytotoxicity call in assay [1] and in assay [2] was “inactive” throughout. The growth inhibition call in assay [3] was “inactive”.
As to `Nc1ncccc1CN1CC[C@]2(CC(=O)NC2=O)C1`, the cytotoxicity call in assay [1] and in assay [2] was “inactive” throughout. In assay [3], the growth inhibition call is “inactive”.
`c1ccc2c(c1)sc1ccccc12`: in assay [1], the cytotoxicity call is “active”. The cytotoxicity call in assay [2] is “inactive”. The growth inhibition call in assay [3] is “inactive”.
Regarding `O=C1C=CC(=O)C=C1`, the cytotoxicity call in assay [1] and in assay [2] was “inactive” in each case. For the same molecule, the growth inhibition call in assay [3] is “inactive”.
On to `COC(=O)C[C@](O)(CCC(C)(C)O)C(=O)O[C@@H]1C(OC)=C[C@]23CCCN2CCc2cc4c(cc2[C@H]13)OCO4`, for which the cytotoxicity call in assay [1] and in assay [2] was “active” throughout. The growth inhibition call in assay [3] is “inactive”.
With `CN1[C@@H](CO)[C@@H]2c3ccccc3NC[C@@H]21`, the cytotoxicity call in assay [1] and in assay [2] was “inactive” in each case. In addition, the growth inhibition call in assay [3] is “inactive”.
Regarding `O=C(NC[C@H]1CC[C@]2(CNCCOC2)O1)c1ccnnc1`, the cytotoxicity call in assay [1] and in assay [2] was “inactive” each time. Further, the growth inhibition call in assay [3] is “inactive”.
Turning to `Cc1nnc([C@H]2CCCNC2)o1`, the cytotoxicity call in assay [1] and in assay [2] was “inactive” in each case. Further, the growth inhibition call in assay [3] was “inactive”.
`CC(=O)OC1CC(OC2C(O)CC(OC3C(O)CC(OC4CCC5(C)C(CCC6C5CC(O)C5(C)C(C7=CC(=O)OC7)CCC65O)C4)OC3C)OC2C)OC(C)C1OC1OC(CO)C(O)C(O)C1O` (configuration not stated): the cytotoxicity call in assay [1] and in assay [2] was “active” in each case. Moreover, the growth inhibition call in assay [3] was “inactive”.
Regarding `COC(=O)C[C@@H](CN)c1ccc(Cl)cc1`, the cytotoxicity call in assay [1] and in assay [2] was “inactive” each time. Also, the growth inhibition call in assay [3] is “inactive”.
As for `OCc1ccco1`, the cytotoxicity call in assay [1] and in assay [2] was “inactive” in each case. Moreover, the growth inhibition call in assay [3] is “inactive”.
For `N#Cc1nn(-c2c(Cl)cc(C(F)(F)F)cc2Cl)c(N)c1S(=O)C(F)(F)F` (configuration not stated), the cytotoxicity call in assay [1] is “inactive”. The cytotoxicity call in assay [2] is “active”. Moreover, the growth inhibition call in assay [3] is “inactive”.
Take `CC(=O)[C@]12[C@@H]3CC=C[C@H]1N2CC3` (some centres not stated): the cytotoxicity call in assay [1] and in assay [2] was “inactive” in each case. In assay [3], the growth inhibition call was “inactive”.
As for `Cc1ccc(C)c(C(=O)[C@H](N)CC(C)C)c1`, the cytotoxicity call in assay [1] and in assay [2] was “inactive” each time. Besides, the growth inhibition call in assay [3] was “inactive”.
On to `CN1CCc2cc3c(cc2[C@@H]1O)OCO3`, for which the cytotoxicity call in assay [1] and in assay [2] was “inactive” in each case. Moreover, in assay [3], the growth inhibition call is “inactive”.
As to `O=c1cccc2n1CC1CNCC2C1` (configuration not stated), the cytotoxicity call in assay [1] and in assay [2] was “inactive” each time. The growth inhibition call in assay [3] was “inactive”.
For `CCCCCCCCCC(=O)O[C@@H]1[C@@H](C)[C@@]2(O)[C@@H](C=C(CO)C[C@]3(O)C(=O)C(C)=C[C@@H]23)[C@@H]2C(C)(C)[C@]12OC(=O)CCCCCCCCC`, the cytotoxicity call in assay [1] and in assay [2] was “inactive” throughout. The growth inhibition call in assay [3] was “inactive”.

The record behind these values is the antibiotic and cytotoxicity screens of Wong et al. (2023).
